Results from patent publication US20240409647A1, “BISPECIFIC BINDING PROTEINS AGAINST ALARMINS AND USES THEREOF” (SINOMAB BIOSCIENCE LIMITED, priority 2022, published 2024).

Columns and labels:
Human PBMCs [1] = assay: CCL8 and IFNγ release from human PBMC incubated with IL-12 and IL-33; type: cell-based; design: key to Intensity of specific cytokine inhibition, IFNγ / Intensity of specific cytokine inhibition, CCL-8: −: no binding; +: weak; ++: moderate; +++: strong binding; N/A refers to no binding affinity; conditions: 5 μg/ml
Description: (§1) Human PBMCs (4×10^5 per group, Ixcells) were incubated with IL-2 (10 unit/mL, PeproTech) and various alarmin/alarmin combinations to mimic the pro-inflammatory cytokines release during allergic diseases. For IL-5 and IL-13 releases, PBMCs were incubated with IL-2 and three alarmins (all 10 ng/ml) for three days. For CCL17 release, PBMC was incubated with TSLP (10 ng/ml) for 1 day. For CCL8 and IFNγ releases, PBMCs were incubated with IL-12 (10 ng/ml, Sino Biological) and IL-33 (10 ng/ml) for 1 day. Cells were pretreated with SM17 (5 μg/ml) or IgG4 isotype control (5 μg/ml) for an hour before the addition of cytokines.
(§2) Supernatants were collected and the cytokine concentration were measured by ELISA kits (R&D systems). These established assays were used to test the potency of and SM17 and bsBps. […] Results were expressed in absolute amount in pg/ml.
(§3) SM17, three different SM17-anti-IL33 bsBps and three different SM17-anti-TSLP bsBps (all at 5 μg/ml) were added to human PBMC cultures under conditions that shall induce the release of IFNγ, CCL8, CCL17 and IL-5 as described in Example 11 above. The levels of different cytokines and chemotactic factors in supernatant obtained in induced PBMC were evaluated using standard ELISA methods.

IL-17RB = molecular target: T1, IL-17RB (Homo sapiens, UniProt Q9NRM6); assay: ELISA, antigen binding specificity of bsBp (IL-17RB); design: key: −: no binding; +: weak; ++: moderate; +++: strong binding; N/A refers to no binding affinity; conditions: 33.5 nM; antigen coated at 2 μg/mL
T1 construct: purchased R&D systems
T1 sequence (Q9NRM6 18-502): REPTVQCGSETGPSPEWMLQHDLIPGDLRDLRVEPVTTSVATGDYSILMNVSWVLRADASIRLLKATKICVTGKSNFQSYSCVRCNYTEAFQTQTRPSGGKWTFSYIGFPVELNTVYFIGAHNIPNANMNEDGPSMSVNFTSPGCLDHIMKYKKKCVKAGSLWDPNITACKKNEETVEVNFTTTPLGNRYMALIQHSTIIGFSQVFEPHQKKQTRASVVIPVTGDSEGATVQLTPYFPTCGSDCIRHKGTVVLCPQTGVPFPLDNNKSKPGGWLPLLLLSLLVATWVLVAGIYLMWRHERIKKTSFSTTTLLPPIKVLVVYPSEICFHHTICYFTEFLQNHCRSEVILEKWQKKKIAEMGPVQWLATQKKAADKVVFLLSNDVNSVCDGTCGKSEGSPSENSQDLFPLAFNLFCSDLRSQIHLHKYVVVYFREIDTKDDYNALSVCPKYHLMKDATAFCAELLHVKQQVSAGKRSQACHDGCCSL
Method in brief: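 Wells were coated with recombinant antigen at 2 μg/mL, and bispecific antibodies were applied at 33.5 nM for 2 h at room temperature. Standard ELISA format, followed by five PBS washes.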

[2] = system: Th2 cell population in human PBMC; assay: Th2 cell population in human PBMC culture (flow cytometry); type: cell-based; design: key: −: no inhibition; +: weak; ++: moderate; +++: strong inhibition; conditions: IL-2 (10 unit/mL) and three alarmins (10 ng/ml), 5 days
Text: While alarmins are known to work in concert to enhance ILC2 and Th2 cell functions such as increase in cell population, steroids such as Dexamethasone (Dex) can negate these effects, resulting in the mitigation of type 2 immune responses [Jia, Yi et al. American Journal Of Respiratory Cell And Molecular Biology, vol. 55, 5 (2016): 675-683]. ILC2 and Th2 cell population can be determined by flow cytometry (BD FACSVerse) following standard procedures known to those skilled in the art.

Human PBMCs [3] = assay: IL-5 and IL-13 release from human PBMC incubated with IL-2 and three alarmins; type: cell-based; conditions: 5 μg/ml
Description: as §1, §2, §3

IL-33 [4] = molecular target: T2, IL-33 (Homo sapiens, UniProt O95760); assay: Bio-Layer Interferometry (Octet), binding kinetics of bsBp to human IL-33
T2 construct: purchased R&D systems
T2 sequence (O95760 95-270): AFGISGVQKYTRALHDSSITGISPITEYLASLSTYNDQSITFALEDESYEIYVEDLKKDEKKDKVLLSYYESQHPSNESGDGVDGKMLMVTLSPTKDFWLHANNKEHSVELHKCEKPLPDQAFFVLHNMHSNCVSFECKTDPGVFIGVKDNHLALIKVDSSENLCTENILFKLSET
Description: (§4) The binding affinity of bsBp to the targeted alarmins was determined using a bio-Layer Interferometry analysis (Octet ReD96 system, Sartorius). bsBp or SM17 (20 μg/mL) was immobilized on biosensors via binding to anti-human Fab CH1 region; serially diluted human IL33 and TSLP (158.7 nM, 79.4 nM, 39.7 nM) (R&D systems) were added to plot the association and dissociation curve according to the manufacturer's specification. Biosensors immobilized with irrelevant antibody (SM03, anti-human CD22 chimeric IgG1 antibody, SinoMab BioScience Limited, 20 μg/mL) were used as control reference.

[5] = system: ILC2 population in human PBMC; assay: ILC2 cell population in human PBMC culture (flow cytometry); type: cell-based; design: key: −: no inhibition; +: weak; ++: moderate; +++: strong inhibition; conditions: IL-2 (10 unit/mL) and three alarmins (10 ng/ml), 5 days
Method in brief: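 Th2 and ILC2 populations in human PBMC culture measured by flow cytometry using standard procedures.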

IL-33 [6] = molecular target: T2, IL-33; assay: ELISA, antigen binding specificity of bsBp (IL-33); design: key: −: no binding; +: weak; ++: moderate; +++: strong binding; N/A refers to no binding affinity; conditions: 33.5 nM; antigen coated at 2 μg/mL
Description: (§5) Binding specificities of bsBp were evaluated by standard ELISA assays. Briefly, ELISA strips were coated with the respective target antigens, including IL17RB, IL-33, or TSLP (R&D systems) at a final concentration of 2 μg/mL. Bispecific antibodies were added at 33.5 nM to ELISA strips coated with the desired antigen. After incubation under room temperature for 2 hours, ELISA strips were washed five times with PBS. […] No result is provided for SM17-human TSLPR as the yield was too low to be detected.

Human PBMCs [7] = assay: CCL17 release from human PBMC incubated with TSLP; type: cell-based; design: key to Intensity of specific cytokine inhibition, CCL-17: −: no binding; +: weak; ++: moderate; +++: strong binding; N/A refers to no binding affinity; conditions: 5 μg/ml; human PBMC
Description: as §1, §2, §3

TSLP [8] = molecular target: T3, TSLP (Homo sapiens, UniProt Q969D9); assay: Bio-Layer Interferometry (Octet), binding kinetics of bsBp to human TSLP
T3 construct: purchased R&D systems
Description: as §4

Normal human DCs [9] = assay: Dendritic cell potency assay, TSLP-induced CCL17 production; type: cell-based; conditions: 5 μg/mL; TSLP 10 ng/mL, 5 days
Text: (§6) TSLP from inflamed epithelium promotes maturation of dendritic cells (DCs) to prime Th2 responses via CCL17, which induces chemotaxis of CD4+ T cells to mediate inflammation (Kitajima and Ziegler. 2013. “Cutting Edge: Identification Of The Thymic Stromal Lymphopoietin-Responsive Dendritic Cell Subset Critical For Initiation Of Type 2 Contact Hypersensitivity”. J Immunol 191: 4903-4907; Bleck et al. 2015. “Co-Expression Of Type 2 Immune Targets In Sputum-Derived Epithelial And Dendritic Cells From Asthmatic Subjects”. J Allergy Clin Immunol 136: 619-627.e5). Normal human DCs were obtained from Lonza (Bend, OR). The DCs were cultured in LGM-3 medium (Lonza). TSLP (10 ng/mL) is added into the DC cultures for 5 days in the presence of 5 μg/mL of SM17, IgG4 isotype control (Sino Biological), SM17-TSLPR bsBp (SM17 fused with TSLP receptor extracellular domain) or SM17-anti-TSLP bsBp 2 #. The supernatants are harvested and the levels of CCL17 measured by ELISA following the manufacturer's specification (R&D systems).

TSLP [10] = molecular target: T3, TSLP; assay: ELISA, antigen binding specificity of bsBp (TSLP); design: key: −: no binding; +: weak; ++: moderate; +++: strong binding; N/A refers to no binding affinity; conditions: 33.5 nM; antigen coated at 2 μg/mL
Description: as §5

Normal human DCs [11] = assay: Dendritic cell potency assay, TSLP-induced CCL17 production; type: cell-based; design: key: −: no binding; +: weak; ++: moderate; +++: strong binding; N/A refers to no binding affinity; conditions: 5 μg/mL; TSLP 10 ng/mL, 5 days
Text: as §6

[12] = bsBp or SM17 immobilized at 20 μg/mL

Molecule | CCL8 release, suppression effect as compared to SM17 (in words) (Human PBMCs [1]) | Intensity of specific cytokine inhibition, CCL-8 (Human PBMCs [1]; human PBMC) | Intensity of specific cytokine inhibition, IFNγ (Human PBMCs [1]; human PBMC) | Intensity of specific antigen binding, IL-17RB coated on ELISA strips (IL-17RB) | Cell proliferation inhibition, Th2 [2] | IL-5 release, suppression effect as compared to SM17 (in words) (Human PBMCs [3]) | Kdis (IL-33 [4]) | Ka (IL-33 [4]; [12]) | Cell proliferation inhibition, ILC2 [5] | Intensity of specific antigen binding, IL-33 coated on ELISA strips (IL-33 [6]) | Intensity of specific cytokine inhibition, CCL-17 (Human PBMCs [7]) | Kdis (TSLP [8]) | Ka (TSLP [8]; [12]) | TSLP-induced CCL17 production in DCs (in words) (Normal human DCs [9]) | Intensity of specific antigen binding, TSLP coated on ELISA strips (TSLP [10]) | Potency, inhibition of CCL17 release on dendritic cells (Normal human DCs [11])
SM17-anti IL-33 3# bsBp: bispecific binding protein, SM17 IgG fused to anti-IL-33 scFv; HC SEQ ID NO: 65, LC SEQ ID NO: 33 (antibody) heavy: MDLLHKNMKHLWFFLLLVAAPRWVLSQVQLVQSGAEVKKPGASVKVSCKASGYTFISYWMNWVRQAPGQGLEWMGRIDPYDSEIQYNQKFKDRVTMTRDTSISTAYMELSRLRSDDTAVYYCARSGGFDWFAYWGQGTLVTVSSASTKGPSVFPLAPCSRSTSESTAALGCLVKDYFPEPVTVSWNSGALTSGVHTFPAVLQSSGLYSLSSVVTVPSSSLGTKTYTCNVDHKPSNTKVDKRV[sequence of human IgG4 Fc with S228P (EU numbers) not given]GGGSGGGGSGGGGSEVQLLESGGGLVQPGGSLRLSCAASGSTFSDYYMNWVRQAPGKGLEWVSSISRYSSYIYYADSVKGRFTISRDNSKNTLYLQMNSLRAEDTAVYYCARDIGGMDVWGQGTLVTVSSGGGGSGGGGSGGGGSGGGGSQSVLTQPPSASGTPGQRVTISCTGSSSNIGAVYDVHWYQQLPGTAPKLLIYRNNQRPSGVPDRFSGSKSGTSASLAISGLRSEDEADYYCQTYDSSRWVFGGGTKLTVL light: DIQMTQSPSSLSASVGDRVTITCRASENINSNLAWYQQKPGKAPKLLLYDVTNLADGVPSRFSGSGSGTDYTLTISSLQPEDFATYYCQHFWGPPYTFGGGTKVEIKRTVAAPSVFIFPPSDEQLKSGTASVVCLLNNFYPREAKVQWKVDNALQSGNSQESVTEQDSKDSTYSLSSTLTLSKADYEKHKVYACEVTHQGLSSPVTKSFNRGEC | stronger suppression effect | ++ | + | +++ | +++ | strongest suppression effect | <1e-07 s⁻¹ | 22700 M⁻¹ s⁻¹ | +++ | +++ |  |  |  |  |  | 
SM17-anti TSLP 2# bsBp: bispecific binding protein, SM17 IgG fused to anti-TSLP scFv; HC SEQ ID NO: 61, LC SEQ ID NO: 33 (antibody) heavy: MDLLHKNMKHLWFFLLLVAAPRWVLSQVQLVQSGAEVKKPGASVKVSCKASGYTFISYWMNWVRQAPGQGLEWMGRIDPYDSEIQYNQKFKDRVTMTRDTSISTAYMELSRLRSDDTAVYYCARSGGFDWFAYWGQGTLVTVSSASTKGPSVFPLAPCSRSTSESTAALGCLVKDYFPEPVTVSWNSGALTSGVHTFPAVLQSSGLYSLSSVVTVPSSSLGTKTYTCNVDHKPSNTKVDKRV[sequence of human IgG4 Fc with S228P (EU numbers) not given]GGGSGGGGSGGGGSQVQLVQSGAEVKKPGASVKVSCKASGYIFTDYAMHWVRQAPGQGLEWMGTFIPLLDTSDYAQKFQGRVTMTADTSTSTAYMELRSLRSDDTAVYYCARMGVTHSYVMDAWGQGTLVTVSSGGGGSGGGGSGGGGSGGGGSEIVLTQSPGTLSLSPGERATLSCRASQPISISVHWYQQKPGQAPRLLIYFASQSISGIPDRFSGSGSGTDFTLTISRLEPEDFAVYYCQQTFSLPYTFGQGTKVEIK light: DIQMTQSPSSLSASVGDRVTITCRASENINSNLAWYQQKPGKAPKLLLYDVTNLADGVPSRFSGSGSGTDYTLTISSLQPEDFATYYCQHFWGPPYTFGGGTKVEIKRTVAAPSVFIFPPSDEQLKSGTASVVCLLNNFYPREAKVQWKVDNALQSGNSQESVTEQDSKDSTYSLSSTLTLSKADYEKHKVYACEVTHQGLSSPVTKSFNRGEC |  |  |  | +++ | +++ |  |  |  | +++ |  | + | <1e-07 s⁻¹ | 374000 M⁻¹ s⁻¹ | efficient in suppressing TSLP-induced CCL17 production | ++ | +
